Measured values reported in article PMC4336329 (PLoS ONE, 2015).
The whole screen tested about 310,000 compounds, of which about 2,200 (0.71%) showed an effect of 50% or more. The effect is printed as a negative number. The list shows a part of the results.

Biological target: human ether-à-go-go-related gene (hERG) potassium channel (human, UniProt Q12809)
Experiment: primary screen, population patch clamp on CHO cells stably expressing hERG

Sequence of human ether-à-go-go-related gene (hERG) potassium channel (Q12809 whole entry, looked up): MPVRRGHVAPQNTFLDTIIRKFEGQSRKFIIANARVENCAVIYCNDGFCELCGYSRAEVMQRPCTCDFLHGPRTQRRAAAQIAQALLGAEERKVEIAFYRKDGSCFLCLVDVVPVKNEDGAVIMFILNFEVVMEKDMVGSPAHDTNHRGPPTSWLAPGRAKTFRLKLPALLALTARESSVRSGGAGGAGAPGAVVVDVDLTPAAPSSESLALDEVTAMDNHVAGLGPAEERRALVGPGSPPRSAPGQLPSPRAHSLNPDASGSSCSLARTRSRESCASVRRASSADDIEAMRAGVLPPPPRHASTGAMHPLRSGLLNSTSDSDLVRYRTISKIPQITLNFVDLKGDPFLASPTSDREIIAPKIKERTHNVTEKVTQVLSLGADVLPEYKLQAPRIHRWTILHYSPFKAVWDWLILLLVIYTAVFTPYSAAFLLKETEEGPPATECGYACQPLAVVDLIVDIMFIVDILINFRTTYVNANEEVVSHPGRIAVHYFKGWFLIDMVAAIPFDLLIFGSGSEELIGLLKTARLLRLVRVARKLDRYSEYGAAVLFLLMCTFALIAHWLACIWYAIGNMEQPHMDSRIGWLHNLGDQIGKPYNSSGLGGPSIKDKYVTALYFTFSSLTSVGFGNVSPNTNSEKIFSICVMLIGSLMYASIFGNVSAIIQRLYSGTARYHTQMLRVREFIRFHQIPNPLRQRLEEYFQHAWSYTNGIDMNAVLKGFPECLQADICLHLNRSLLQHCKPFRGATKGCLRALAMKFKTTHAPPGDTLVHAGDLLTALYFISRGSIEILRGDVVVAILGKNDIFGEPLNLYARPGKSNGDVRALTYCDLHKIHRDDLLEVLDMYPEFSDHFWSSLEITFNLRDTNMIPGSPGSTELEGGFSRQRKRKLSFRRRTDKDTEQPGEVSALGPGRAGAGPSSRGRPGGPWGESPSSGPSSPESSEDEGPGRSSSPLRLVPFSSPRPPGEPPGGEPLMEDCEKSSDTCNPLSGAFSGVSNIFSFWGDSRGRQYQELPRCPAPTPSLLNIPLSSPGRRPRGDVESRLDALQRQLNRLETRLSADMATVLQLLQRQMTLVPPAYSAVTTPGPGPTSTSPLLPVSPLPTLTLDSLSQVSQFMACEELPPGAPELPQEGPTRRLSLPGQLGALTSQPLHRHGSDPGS

Structure (SMILES)	hERG current change (%, negative = inhibition) at 1uM [%]
COC(=O)c1ccc(NC(=O)CCN2CCOCC2)cc1	6.71
COc1ccc(CNCC(=O)Nc2cccc(S(N)(=O)=O)c2)cc1.O=C(O)C(=O)O	6.54
COc1ccc(NC(=O)Cc2c(Cl)cccc2Cl)cn1	8.99
CCC(Cc1ccccc1)NC(=O)CSc1ccsc1[N+](=O)[O-] (centres unmarked)	8.33
CCN(CC)CCCN1C(=O)C(=O)/C(=C(/O)c2ccc3c(c2)OCCO3)C1c1ccco1 (centres unmarked)	7.46
CN(Cc1ccccc1)CC(O)COc1ccc(CNCCOc2cccnc2)cc1 (centres unmarked)	12
CCOC(=O)/C=C/[C@H]1CC2(CCO1)SCCCS2	6.05
Cc1cccc(Nc2nnc(SC(C)C(=O)NC3CC3)s2)c1 (centres unmarked)	1.34
COC(=O)c1cc(Oc2ccc(C(=O)OC)cc2N)cc(C(=O)OC)c1	3.78
C[C@H]1CC[C@@]2(O[C@@H](CCO)C[C@H](O)[C@H]2O)O1	15.3
Cc1ccc(C(=O)NC(=S)Nc2ccc(NC(=O)c3cccc(Cl)c3)cc2)cc1	0.543
CCOC(=O)C1CCN(C(=O)/C=C/c2ccc3c(c2)OCO3)CC1	18.2
O=C(Nc1ccc2c(c1)OCCO2)Nc1ccc2c(c1)OCO2	16
O=C(c1ccco1)N1CCN(c2ncccn2)CC1	1.97
CC(OC(=O)c1cccnc1Cl)C(=O)Nc1ccc(S(N)(=O)=O)cc1 (centres unmarked)	23.1
COc1ccc(C2NC(=O)c3sc4nc(C)c(C(C)=O)c(-c5ccc(Cl)cc5)c4c3N2)cc1 (centres unmarked)	4.5
Cc1ccc(C(=O)NC(=S)Nc2ccc(S(=O)(=O)N(C)c3ccccc3)cc2)cc1	15.1
COc1ccc(CCN=C(NS(=O)(=O)c2ccc(Cl)cc2)c2ccccc2)cc1	-2.44
Cc1noc(C)c1C(=O)Nc1cccnc1	15

Structure (SMILES)	hERG current change (%, negative = inhibition) at 1uM [%]
O=C(c1cc(COc2ccc3ncccc3c2)on1)N1CCCCCC1	5.47
CCOC(=O)N1CCN(C(=O)CSc2nnc(Cc3cccn3C)n2CCc2ccccc2)CC1	11.7
O=C(O)c1ccc(NS(=O)(=O)c2cccc(C(=O)Nc3cccc(C(=O)O)c3)c2)cc1	10
COc1ccc(-c2cc3c(=O)n(CC(=O)NCCN4CCCC4)nc(C)n3n2)cc1	-9.09
COC(=O)C(Cc1ccc(O)cc1)NC(=O)c1ccccc1OC (centres unmarked)	3.58
O=C(Nc1ccc(N2CCOCC2)cc1)C1CCN(S(=O)(=O)c2ccc3c(c2)OCCO3)CC1	3.43
CCCCCN(C(=O)NC(=O)NCCCC)S(C)(=O)=O	2.07
CCOC(=O)[C@@H]1[C@H]2COc3ccccc3[C@@H]2N2C(=O)N(c3cccc(F)c3)C(=O)[C@]12C	6.94
CCn1c(=O)c(=O)[nH]c2cc(C(=O)NC3CCCc4ccccc43)ccc21 (centres unmarked)	11.2
Cc1cccc(C)c1NC(=O)C(NC(=O)c1ccccn1)c1ccccc1[N+](=O)[O-] (centres unmarked)	9.82
O=C(NC[P+](=O)O)OCc1ccccc1	6.58
CCC(C)NC(=O)C1CCC(=O)N1CCc1ccccc1 (centres unmarked)	9.32
CCOC(=O)CSc1nnnn1-c1cc(OC)ccc1OC	4.37
S=c1[nH]nc(-c2ccncc2)n1/N=C/C=C/c1ccco1	12.5
COc1ccc(OC)c(/C=C2\SC(N3CCCC(C)C3)=NC2=O)c1 (centres unmarked)	4.26
Fc1cccc(CN2CCC(Cc3ccccc3)CC2)c1	9.02
COc1cc(C2NC(=O)NC(C)=C2C(=O)OCC2CCCO2)ccc1O (centres unmarked)	8.04
Cc1ccc(NC(=O)CN2C(=O)NC3(CCc4ccccc43)C2=O)cc1S(=O)(=O)N1CCCCC1 (centres unmarked)	11.4
COC(=O)c1sc(N)c(C(=O)OC)c1COC(=O)c1c(C)noc1C	9.24

Structure (SMILES)	hERG current change (%, negative = inhibition) at 1uM [%]
CCSC1=C(C#N)C2(CCCCC2)C2=C(CC(C)(C)CC2=O)N1	12.3
COc1ccc(-c2cnnn2-c2ccc(NC(=O)c3ccco3)cc2)cc1OC	-2.01
Cc1ccc(C)c(NS(=O)(=O)c2ccc3[nH]c(=O)oc3c2)c1	13.3
O=C(O)c1cc(=O)c2cc(Cl)ccc2o1	13.3
Cc1ccccc1-c1nc2ccccc2o1	16.4
CCOC(=O)C1=C(C)N(C)C(C)=C(C(=O)OCC)C1c1ccc(C(=O)OC)cc1	11.1
CNC(=S)NNc1nc(-c2ccccc2)c2cc(Cl)ccc2n1	15.6
CC(=O)Nc1ccc2c(c1)CC1(C(=O)N(C)C(=O)N(C)C1=O)C1CCCN21 (centres unmarked)	14.6
COc1ccccc1C(=O)Nc1ccc2c(c1)OCCO2	16.8
O=C(/C=C/c1cccc([N+](=O)[O-])c1)Nn1c(-c2ccccc2F)nc2ccccc2c1=O	3.83
COc1ccccc1N(C(=O)c1ccco1)C(C(=O)NC1CCCC1)c1cccnc1 (centres unmarked)	4.39
O=C(CSc1ncnc2scc(-c3ccccc3)c12)N1CCN(c2ccccc2F)CC1	7.36
CCOC(=O)C1CCCN(C(=O)CCCn2nnnc2CN2CCC(C)CC2)C1 (centres unmarked)	8.37
O=C(NCCCCNC(=O)c1c(F)c(F)c(F)c(F)c1F)c1c(F)c(F)c(F)c(F)c1F	1.56
O=C1OC(c2ccc(F)cc2)=N/C1=C\c1ccc(Br)o1	6.32
CC(C(=O)Nc1ccccc1)N(c1cccc(Cl)c1)S(C)(=O)=O (centres unmarked)	9.74
CCC(C)(C)n1nnnc1C(c1ccc2ncccc2c1)N1CCCCCC1 (centres unmarked)	10
COc1cc(OC)cc(C(=O)Nc2ccc(S(=O)(=O)N(C)C)cc2)c1	7.17
